# Measured values: PubChem BioAssay AID504339 (National Center for Advancing Translational Sciences (NCATS), 2011)
# In all, about 390,000 compounds went through this assay and about 17,000 (4.4%) were called active. Inconclusive means that the source gave no clear call. Such entries were picked first, then a sample of the others. Calls come from the whole dose curve; as a rule, active = well fitted inhibition curve with a large enough effect; inconclusive = small, poorly fitted or top-dose-only effect; inactive = no such curve, though single readings can be large or run the other way. Where the call is inconclusive, the potency comes from a doubtful curve fit.
# Molecular target: Lysine-specific demethylase 4A (Homo sapiens) (UniProt O75164)
# UniProt O75164, sequence (O75164 whole entry, looked up, the tested form may be a part): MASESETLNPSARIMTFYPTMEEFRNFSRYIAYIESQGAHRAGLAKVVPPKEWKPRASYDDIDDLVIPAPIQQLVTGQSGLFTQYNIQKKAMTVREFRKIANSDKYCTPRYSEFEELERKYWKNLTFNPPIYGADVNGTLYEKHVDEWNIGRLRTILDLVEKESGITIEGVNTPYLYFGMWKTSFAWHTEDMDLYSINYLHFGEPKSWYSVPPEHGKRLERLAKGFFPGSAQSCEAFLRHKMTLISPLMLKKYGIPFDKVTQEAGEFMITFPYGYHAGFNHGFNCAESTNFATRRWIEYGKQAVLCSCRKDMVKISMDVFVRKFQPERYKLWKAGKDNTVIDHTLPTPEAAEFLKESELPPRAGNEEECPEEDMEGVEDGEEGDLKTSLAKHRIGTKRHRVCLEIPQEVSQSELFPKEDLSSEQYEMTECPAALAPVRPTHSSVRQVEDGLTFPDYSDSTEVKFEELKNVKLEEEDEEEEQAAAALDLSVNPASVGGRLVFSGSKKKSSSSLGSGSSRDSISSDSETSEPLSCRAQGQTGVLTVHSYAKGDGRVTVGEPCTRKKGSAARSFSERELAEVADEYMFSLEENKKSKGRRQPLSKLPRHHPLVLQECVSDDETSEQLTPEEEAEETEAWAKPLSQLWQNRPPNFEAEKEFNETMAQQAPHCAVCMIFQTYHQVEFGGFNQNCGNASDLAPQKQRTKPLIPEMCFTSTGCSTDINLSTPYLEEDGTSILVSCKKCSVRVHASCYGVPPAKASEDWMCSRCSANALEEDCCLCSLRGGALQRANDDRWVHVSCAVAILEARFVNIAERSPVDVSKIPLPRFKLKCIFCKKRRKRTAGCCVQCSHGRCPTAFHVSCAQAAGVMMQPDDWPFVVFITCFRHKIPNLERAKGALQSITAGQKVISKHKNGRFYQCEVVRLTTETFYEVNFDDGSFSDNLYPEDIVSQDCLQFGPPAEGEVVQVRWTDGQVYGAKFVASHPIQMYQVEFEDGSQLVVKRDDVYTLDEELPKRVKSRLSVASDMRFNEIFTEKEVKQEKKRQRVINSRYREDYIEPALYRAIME
# Assay: qHTS Assay for Inhibitors of JMJD2A-Tudor Domain; note: nearly all actives have a fitted effect of over 50% in size
# Conditions: AlphaScreen JMJD2A-Tudor / H3K4me3 peptide binding; series mostly up to 114 µM
# Potency is the fitted concentration of half-maximal effect; tags give direction and shape of the fitted curve.
row,Compound,Potency
1,Cc1cc(C)c(S(=O)(=O)Nc2nnc(CC(C)C)s2)c(C)c1,inactive
2,CCN(CC)C(=S)Sc1c(-c2ccccc2)c2cc(Cl)ccc2[nH]c1=O,"inconclusive: 50.1 µM [inhibitor, partial curve]"
3,CCn1c(CN2c3ccccc3Sc3ccccc32)n[nH]c1=S,"inconclusive: 56.2 µM [inhibitor, partial curve]"
4,S=C(Nc1cccnc1)Nc1ccccc1Br,"inconclusive: 20 µM [inhibitor, partial curve]"
5,CN1CCN(CC(=O)c2cc(C(C)(C)C)c(O)c(C(C)(C)C)c2)CC1,"inconclusive: 22.4 µM [inhibitor, full curve, poor fit]"
6,COc1cccc(NC(=S)/C(=C(\[O-])c2cc(C)n(-c3ccccc3F)c2C)[n+]2ccc(N(C)C)cc2)c1,active: 25.1 µM
7,COc1cc2c(cc1OC)C(c1ccccc1)N(C(=O)c1ccccc1)CC2 (stereo unspecified),"inconclusive: 56.2 µM [inhibitor, partial curve]"
8,c1ccc(COCCCn2cc(-c3ccccc3)nn2)cc1,"inconclusive: 100 µM [inhibitor, single point]"
9,c1ccc2c(CCN3CCNC[C@H]3Cc3cccc4ccccc34)cccc2c1,active: 56.2 µM
10,NC(N)=N/N=C/c1ccc(OCc2ccc(Cl)cc2Cl)cc1,"inconclusive: 56.2 µM [inhibitor, partial curve]"
11,Cn1cc(C(=O)c2ccc(Cl)cc2Cl)cc1C(=O)N/N=C(\N)COc1ccc(Cl)cc1Cl,"inconclusive: 63.1 µM [inhibitor, partial curve, poor fit]"
12,Cc1cccc(NS(=O)(=O)c2ccc(NC(=O)CN(c3cc([N+](=O)[O-])ccc3C)S(C)(=O)=O)cc2)c1,"inconclusive: 28.2 µM [inhibitor, full curve, poor fit]"
13,COc1cccc(C2c3[nH]c4ccccc4c3CCN2Cc2cccc(C)n2)c1 (stereo unspecified),"inconclusive: 56.2 µM [inhibitor, partial curve, poor fit]"
14,CCOCCN1CCN(C(=O)CN2CCCC2=O)CC1,"inconclusive: 89.1 µM [inhibitor, single point]"
15,COc1cccc(NC(C)=[N+](C)CCNS(=O)(=O)c2ccc(Cl)cc2)c1,"inconclusive: 39.8 µM [inhibitor, single point]"
16,CCC(C)Sc1nnc(CNC(=O)C23CC4CC(CC(C4)C2)C3)n1C1CCCCC1 (stereo unspecified),"inconclusive: 25.1 µM [inhibitor, single point]"
17,COc1cccc(OC)c1C(=O)Nc1ccc(N2CCCC2)cc1,"inconclusive: 39.8 µM [inhibitor, full curve, poor fit]"
18,Cn1c(=O)c2cn3c(c2n(C)c1=O)C(c1ccccc1)CC(c1ccccc1)=N3 (stereo unspecified),"inconclusive: 17.8 µM [inhibitor, full curve]"
19,CCN1C(=O)[C@H]2[C@@H](c3ccc(-c4ccc(F)cc4)c(OC)c3)N[C@@](C)(C(=O)OC)[C@H]2C1=O,"inconclusive: 79.4 µM [inhibitor, partial curve]"
20,C#CCOc1ccc(/C=C2/C(=O)ON=C2C)cc1Cl,active: 12.6 µM
21,COc1ccc(Nc2ncc3c(n2)CCN(Cc2cc(Br)cs2)C3)c(OC)c1,"inconclusive: 28.2 µM [inhibitor, partial curve]"
22,CN1CCN(C(=O)/C(=C/c2ccc(N(C)C)cc2)NC(=O)c2ccccc2)CC1,inactive

row,Compound,Potency
1,Cc1ccc(NC(=O)CSc2nc3c(oc4ccccc43)c(=O)n2-c2ccc(F)cc2)c(C)c1,inactive
2,O=C(O)CSc1c2c(nc3cc(C(=O)Nc4ccc(F)c(Cl)c4)ccc13)CCC2,"inconclusive: 50.1 µM [inhibitor, partial curve]"
3,CCCn1c(N)c(C(=O)CSc2nnc(-c3cccs3)n2C2CC2)c(=O)[nH]c1=O,inactive
4,Cc1cc(C)nc(SCNC(=O)c2ccccc2)n1,"inconclusive: 22.4 µM [inhibitor, partial curve]"
5,CCC/C(=N/NC(=O)c1nnn(-c2nonc2N)c1CN1CCCCC1)c1ccccc1,"inconclusive: 44.7 µM [inhibitor, partial curve]"
6,Cc1cccc(NC(=O)c2nc[nH]c2C(=O)NCCN(CCNC(=O)c2[nH]cnc2C(=O)Nc2cccc(C)c2)CCNC(=O)c2[nH]cnc2C(=O)Nc2cccc(C)c2)c1,"inconclusive: 25.1 µM [inhibitor, full curve, poor fit]"
7,COC(=O)[C@H](Cc1ccccc1)[C@@H](C)OS(N)(=O)=O,inactive
8,NS(=O)(=O)c1ccc(NC(=O)CSc2nnc(NC3CC3)s2)cc1,"inconclusive: 79.4 µM [inhibitor, partial curve]"
9,CC(=O)c1ccc(C(=O)N2CCc3c([nH]c4ccccc34)C2c2ccccn2)s1 (stereo unspecified),"inconclusive: 35.5 µM [inhibitor, partial curve]"
10,Nc1nc2c(s1)CCc1ccccc1-2,"inconclusive: 50.1 µM [inhibitor, partial curve]"
11,COc1cc2c(cc1CN1CCN(C(=O)c3cc(OC)c(OC)c(OC)c3)CC1)OCO2,active: 25.1 µM
12,COc1ccc(CNCc2cn(-c3cccc(F)c3)nc2-c2ccc(C)o2)cc1,"inconclusive: 63.1 µM [inhibitor, partial curve, poor fit]"
13,CCCCC(=O)Nc1ccc(C(=O)Nc2ccc(S(=O)(=O)N3CCCC3)cc2)cc1,"inconclusive: 3.16 µM [inhibitor, single point]"
14,Cc1cc(C)c(NC(=O)Cn2c(=O)n(Cc3ccc4c(c3)OCO4)c(=O)c3ccc(C(=O)NC4CCCCC4)cc32)c(C)c1,inactive
15,CCOC(=O)c1[nH]c(C)c(CCC(=O)NCc2ccc(OCC)cc2)c1C,inactive
16,C#CCOCCOCCOCCNc1nc(N2CCN(C(=O)[C@H]([C@@H](C)CC)n3cc([C@@H](N)Cc4ccc(O)cc4)nn3)CC2)nc(N2CCN(C(=O)[C@H]([C@@H](C)CC)n3cc([C@@H](N)Cc4ccc(O)cc4)nn3)CC2)n1,"inconclusive: 44.7 µM [inhibitor, partial curve]"
17,O=C(OC1CCOC1=O)c1ccc2ccccc2n1 (stereo unspecified),"inconclusive: 39.8 µM [inhibitor, single point]"
18,Cc1ccc(-c2nc(CS(=O)CC(=O)NCCN3CCCC3)c(C)o2)cc1 (stereo unspecified),"inconclusive: 89.1 µM [inhibitor, single point]"
19,N#Cc1c2n(c(=S)n(-c3ccccc3[N+](=O)[O-])c1=O)CCCCC2,"inconclusive: 89.1 µM [inhibitor, single point]"
20,CC(C)OCCCNC(=O)c1cc2c(-c3ccc(Cl)cc3)nn(C)c2s1,inactive
21,Cc1nc2ccc(C(=O)O)cc2c2c1CC(CN)O2 (stereo unspecified),"inconclusive: 89.1 µM [inhibitor, partial curve]"
22,Cc1cccc(C)c1Nc1sc(C(=O)c2ccccc2)c(N)c1C(=O)Nc1ccc(F)cc1,"inconclusive: 50.1 µM [inhibitor, partial curve]"

row,Compound,Potency
1,N=c1c2c(ncn1Cc1ccco1)Oc1cc(O)ccc1C2c1ccccc1 (stereo unspecified),inactive
2,O=C(Nc1nc2n(n1)C(c1ccccc1)C=C(c1ccccc1)N2)c1ccc(Cl)c([N+](=O)[O-])c1 (stereo unspecified),inactive
3,CCOc1ccc(NCC(=O)c2ccc(C)cc2)cc1,"inconclusive: 50.1 µM [inhibitor, partial curve]"
4,CCOC(=O)C(Cc1ccccc1)C(=O)Nc1ccc(N(CC)CC)cc1 (stereo unspecified),active: 50.1 µM
5,COc1ccc2c(c1)CC(C(=O)NCCCN1CCN(c3ccc(F)cc3)CC1)CO2 (stereo unspecified),"inconclusive: 50.1 µM [inhibitor, partial curve]"
6,COC(=O)COc1ccc(C2Nc3c(Cl)ccc(C(=O)O)c3C3C=CCC32)cc1 (stereo unspecified),active: 44.7 µM
7,O=S(=O)(c1ccc(OCc2ccc(Br)cc2)cc1)N1CCOCC1,inactive
8,Cc1ccc2c(c1)c1ccc3c(c1n2C)C(=O)C=CC3=O,active: 6.31 µM
9,CCCCC1=CC2=CC(=O)C(C)(OC(=O)CC)C(=O)C2=CN1c1ccccc1 (stereo unspecified),"inconclusive: 79.4 µM [inhibitor, partial curve]"
10,Cc1ccc(NC(=O)Cn2cc(S(=O)(=O)c3ccc(F)cc3)c(=O)c3cc(F)ccc32)cc1,"inconclusive: 20 µM [inhibitor, full curve, poor fit]"
11,CCOC(=O)c1c(C)nc2sc(C(=O)Nc3ccc(OC)cc3)c(N)c2c1-c1ccc(OC)cc1,inactive
12,CCOC(=O)C1=C(C)Nc2ccccc2S1,"inconclusive: 14.1 µM [inhibitor, single point]"
13,Cc1ccc(CNC(=O)c2ccc(-n3cccc3)cc2)cc1,active: 39.8 µM
14,COc1ccc(CNc2ccc3cn[nH]c3c2)c(OC)c1OC,"inconclusive: 39.8 µM [inhibitor, partial curve]"
15,O=C(O)c1ccc(NC(=S)NC(=O)c2cccc(COc3ccccc3)c2)cc1,inactive
16,Nc1cnn(Cc2ccccc2F)c1,active: 50.1 µM
17,COc1ccccc1CNC(=O)c1ccc(-c2nc(CN3CCc4ccccc43)c(C)o2)cc1,"inconclusive: 20 µM [inhibitor, full curve]"
18,O=C(Cc1ccc(F)cc1)NCCS(=O)(=O)N1CCN(c2cccc(Cl)c2)CC1,inactive
19,CCN1C(N(C)CCc2cccs2)=N[C@@H](c2ccccc2)C(C(=O)OC)=C1C,"inconclusive: 15.8 µM [inhibitor, single point]"
20,COc1cccc(CNC(=O)CCC2CCCN(C(=O)c3cccnc3SC)C2)c1 (stereo unspecified),active: 39.8 µM
21,Cn1c(=O)[nH]c(=O)c2c1nc(N(CCO)Cc1ccccc1)n2CCCc1ccccc1,inactive
22,CC1CCN(C(=O)C2CCCN2S(=O)(=O)c2ccc(Cl)cc2)CC1 (stereo unspecified),inactive
